Screen size: about 110,000 compounds; about 230 (0.21%) showed an effect of 50% or more. This is one part of the list.
The compounds below were run against DPAP1 (Plasmodium falciparum, UniProt Q8IIJ9) (assay: primary screen, percent inhibition; read by cleavage of a fluorogenic dipeptide substrate; higher = more effect of the substance).
Set-up: species or system P. falciparum D10 trophozoite lysates; single well
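Note: 30 min substrate incubation versus DMSO and 10 µM JCP410 controls.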

Sequence of DPAP1 (Q8IIJ9 whole entry, looked up): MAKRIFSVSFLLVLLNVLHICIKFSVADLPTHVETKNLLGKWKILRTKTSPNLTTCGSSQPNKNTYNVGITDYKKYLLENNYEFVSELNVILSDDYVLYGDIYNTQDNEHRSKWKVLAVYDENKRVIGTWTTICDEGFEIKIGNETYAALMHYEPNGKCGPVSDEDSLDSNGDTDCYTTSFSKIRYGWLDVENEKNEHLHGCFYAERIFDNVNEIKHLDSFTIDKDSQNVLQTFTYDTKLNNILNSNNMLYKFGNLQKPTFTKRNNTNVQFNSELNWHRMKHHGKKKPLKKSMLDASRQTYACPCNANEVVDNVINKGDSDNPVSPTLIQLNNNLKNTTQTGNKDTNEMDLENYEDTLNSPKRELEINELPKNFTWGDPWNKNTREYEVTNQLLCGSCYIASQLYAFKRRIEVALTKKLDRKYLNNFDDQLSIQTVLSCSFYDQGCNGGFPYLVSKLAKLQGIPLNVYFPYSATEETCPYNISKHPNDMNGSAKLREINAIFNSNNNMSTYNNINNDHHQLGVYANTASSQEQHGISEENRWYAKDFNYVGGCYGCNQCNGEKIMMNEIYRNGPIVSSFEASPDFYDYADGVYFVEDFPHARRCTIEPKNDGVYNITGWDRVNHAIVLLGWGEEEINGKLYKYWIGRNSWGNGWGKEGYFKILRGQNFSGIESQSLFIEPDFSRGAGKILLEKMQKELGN

Row | SMILES | % Inhibition @ 10 uM [%]
1 | O=C(Nc1ccc(-c2nc3ccccc3[nH]2)cc1)c1cccs1 | -1.82
2 | Cc1ccccc1-c1nc(CS(=O)(=O)CC(=O)NC(C)CCc2ccccc2)c(C)o1 (centres unmarked) | 1.55
3 | CNC(=O)c1ccc(N2CCN(CCO)CC2)nc1 | -10.2
4 | O=C(Cn1cc(S(=O)(=O)N2CCCC2)c(S(=O)(=O)N2CCCC2)c1)NCc1ccco1 | -3
5 | CC(C)Oc1ccc(Cc2c(O)nc(O)nc2O)cc1 | 5.29
6 | Cc1ccc(NC(=O)c2cc3c(=O)n4cccc(C)c4nc3n2C)cc1 | -1.42
7 | CCOC(=O)C1C(=O)NCC2CCCC21 (centres unmarked) | -8.85
8 | CCC(=O)Nc1nonc1-c1nc2ccccc2n1C | 2.03
9 | CC(=O)c1c(C)nc(C)nc1NC(=O)C(C)C | 3.25
10 | CC1CCN(C(=O)COc2ccc(Br)cc2)CC1 | 2.45
11 | COc1ccc(Cl)cc1NC(=O)C1CCN(S(=O)(=O)c2c(C)cc(C)cc2C)CC1 | -4.43
12 | CC1=C(C)CC2C(=O)N(c3ccc(C(F)(F)F)cc3)C(=O)C2C1 (centres unmarked) | -2.78
13 | Cc1cccc(C(=O)Nc2ncc(CN3CCOCC3)s2)c1 | 4.08
14 | Cc1[nH]c2ccccc2c1CCNC(=O)COc1c(F)c(F)cc(F)c1F | 2.67
15 | CC(=O)/N=C(\Nc1nc(C)cc(C)n1)Nc1ccc(C)cc1Cl | 3.12
16 | CC(=O)N(C)c1ccc(NC(=O)C(F)(F)F)cc1 | -0.0369
17 | COc1cc(/C=C/c2nc(C#N)c(N3CC(C)OC(C)C3)o2)cc(OC)c1OC (centres unmarked) | -0.808
18 | Cc1nc2c(-c3ccccc3)c(C)nn2c(C)c1CC(=O)N1CCC(C(N)=O)CC1 | -4.24
19 | Cc1nn(Cc2ccccc2)c(C)c1NC(=O)c1ccccc1Br | -7.69
20 | Brc1ccc(Br)c2cnccc12 | 0.279
21 | COc1cccc(-c2nnc(SCC(=O)Nc3cc(=O)n(C)c(=O)n3C)n2C)c1 | -2.19
22 | Cc1coc2c(C)c3oc(=O)c(CCC(=O)N4CCOCC4)c(C)c3cc12 | 4.13

Row | SMILES | % Inhibition @ 10 uM [%]
23 | Brc1ccccc1OCCCCCCN1CCOCC1 | 3.35
24 | CCc1nc2ccccc2n1Cc1ccccc1F | 1.12
25 | CC(C)Cc1nn2c(O)cc(=O)nc2s1 | -3.85
26 | Cc1cc(NC(=O)c2ccc3c(c2)c(C)c(C)n3Cc2ccccc2)no1 | 2.95
27 | O=c1nc2n(c(O)c1C(c1ccc(Cl)cc1)c1c(O)nc3n(c1=O)CCCS3)CCCS2 (centres unmarked) | 2.51
28 | COc1ccc(-c2c(C)nn3c(-c4ccc(Cl)cc4)cc(C)nc23)cc1OC | -3.48
29 | CCc1nn(-c2cc(Oc3ccccc3)ncn2)c(N)c1C(N)=O | 0.686
30 | O=C(Nc1ccc(F)cc1)c1cccc2ccccc12 | 4.6
31 | Cc1ccc(C(=O)N2CCN(c3ncccn3)CC2)cc1 | 3.48
32 | CCCCNC(=O)c1cc2ncc(Br)cn2n1 | -1.72
33 | CC(CCc1ccccc1)NC(=O)CCC(=O)O (centres unmarked) | -0.834
34 | COc1ccc(/C=C2\N=C(c3ccc(F)cc3)OC2=O)c(OC)c1OC | 1.64
35 | Cc1cc(O)c(NC(=O)c2ccccc2C)cc1C | 0.408
36 | CCCCCn1c(C(O)c2ccccc2)nc2ccccc21 (centres unmarked) | -2.92
37 | CCOc1ccc(-c2csc(Nc3ccc(Cl)cc3)n2)cc1[N+](=O)[O-] | -2.42
38 | CC(=O)C1(O)C(C)CC2C3CCC4CC(O)CCC4(C)C3=CCC21C (centres unmarked) | -5.23
39 | Cc1[nH]nc(Nc2ccccc2Br)c1[N+](=O)[O-] | -2.56
40 | COCc1cc(C)nc2sc3c(c12)NC(c1ccc(NC(C)=O)cc1)NC3=O (centres unmarked) | -5.6
41 | N#CCNC(=O)C(NC(=O)c1ccccc1)OCCc1ccccc1 (centres unmarked) | -5.43
42 | Cc1ccc(-c2cc(C(=O)O)c3ccccc3n2)c(C)c1 | -7.06
43 | CC(NC(=O)CCNS(=O)(=O)c1ccc2nc(O)ccc2c1)c1ccc2c(c1)OCCO2 (centres unmarked) | -2.26
44 | O=C(NCCc1ccccc1F)/C(=C/c1cccnc1)NC(=O)c1ccccc1 | 3.79

Row | SMILES | % Inhibition @ 10 uM [%]
45 | CNC(=O)C(=O)Nc1ccc2c(c1)OCO2 | -4.3
46 | Cc1ccc(S(=O)(=O)N2CCCCC2)cc1C(=O)O | -5.59
47 | Cn1c(=O)c2c(nc(NCc3cccnc3)n2Cc2cccc(Br)c2)n(C)c1=O | -1.28
48 | Cn1c(=O)c2c(-c3ccccc3Cl)n(C(CO)(CO)CO)cc2n(C)c1=O | 0.366
49 | CC(=O)Nc1cccc(Nc2c3ccccc3nc3ccccc23)c1 | -0.661
50 | CCOc1cccc(C(=O)C2=C(O)C(=O)N(Cc3ccncc3)C2c2cccc(O)c2)c1 (centres unmarked) | 3.57
51 | COc1ccc(C2SCC(=O)N2c2ccccc2)cc1 (centres unmarked) | -3.79
52 | CSc1ccccc1NC(=O)c1ccc(Cn2nc(C)c(Br)c2C)o1 | 2.45
53 | CCCOCCOC(=O)C1=C(C)NC(=O)CC1c1ccccc1C(F)(F)F (centres unmarked) | 3.67
54 | O=C1c2ccccc2CC2c3[nH]c4ccccc4c3CCN12 (centres unmarked) | 3.8
55 | Cc1cc(NC(=O)c2cc3n(n2)C(C(F)(F)F)CC(c2ccco2)N3)n(-c2ccccc2)n1 (centres unmarked) | 2.46
56 | Cn1c(C(=O)N2CCC(C(=O)NCc3ccccc3Cl)CC2)cc2oc3ccccc3c21 | -7.02
57 | COc1ccc(-c2[nH]nc3c2C(c2cc4c(cc2Br)OCO4)C(C#N)=C(N)O3)cc1 (centres unmarked) | 0.446
58 | COc1cccc(CSc2nc3ccncc3n2CC(=O)NCC2CCCO2)c1 (centres unmarked) | -0.637
59 | COc1cccc(CN2CCC(N3CCC(C)CC3)CC2)c1OC | -1.52
60 | COc1ccc(Cn2nnc3c(O)nc(C4CCN(C(=O)c5cc(C)ccc5C)CC4)nc32)cc1 | 2.73
61 | Cc1cc(C(=O)NC(C)c2ccccc2)no1 (centres unmarked) | -6.45
62 | O=C(Nc1ccc(-c2ccc(NC(=O)c3ccco3)cc2)cc1)c1ccco1 | -1.36
63 | Cc1nc2ccn(Cc3cccs3)c(=O)c2cc1C(=O)NC1CCCC1 | 3.16
64 | O=C(NCc1cccs1)c1nc2ncccn2n1 | -5.65
65 | COc1cc(C)c(CN2CC3(C)CC2CC(C)(C)C3)cc1C (centres unmarked) | -12.1

From article PMC6919601, “Identification of Plasmodium dipeptidyl aminopeptidase allosteric inhibitors by high throughput screening” (PLoS ONE, 2019)
